Test results published in the supplement of paper PMC3334620.
In all, about 33,000 sequences were measured (“E-score (-0.5 to 0.5)”: median about -0.054, highest 2% from about 0.39 on). This is one part of the list.

target: Ylr278c (UniProt Q05854); assay: PBM E-score (8-mer binding enrichment) (E-score (-0.5 to 0.5)); higher = stronger / more preferred TF binding; most listed sequences are background and not binding sites; conditions: protein concentration: 200 nM; construct: GST-DNA-binding domain
Description: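 Universal 'all 10-mer' protein binding microarrays (Agilent AMADID 015681) probed with GST-tagged S. cerevisiae TFs (full-length or DBD) made by in vitro transcription/translation (PURExpress), about 100-200 nM. Bound TF was detected with fluorescent anti-GST. Each ungapped 8-mer (which stands for itself and its reverse complement) is scored by the PBM enrichment score (E-score), a modified Wilcoxon-Mann-Whitney statistic from -0.5 to +0.5, computed with the Universal PBM Analysis Suite. Scale: above 0.35 generally sequence-specific binding.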

| Sequence | PBM E-score |
| --- | --- |
| CTCTCATA | -0.114 |
| GTTACATA | -0.102 |
| ACTTTGTG | -0.129 |
| ACCAAATA | -0.126 |
| CGCCACGA | -0.149 |
| GCCTGCAC | -0.0969 |
| ACGCGGGA | 0.242 |
| TAATTGTA | -0.137 |
| AGAACCTC | 0.025 |
| CTGGGGAA | -0.225 |
| ATCATCAC | -0.159 |
| CCGTAGCG | 0.108 |
| ACACCGTA | 0.102 |
| ACTTCGCA | -0.14 |
| CCTCATCC | -0.0905 |
| CAGGTAGC | -0.116 |
| TCAAGTGA | -0.226 |
| CTACGGGC | -0.106 |
| TCTCAGAA | -0.282 |
| CAATGCGC | 0.0785 |
| TGGGAAAA | -0.0945 |
| AAGCATTA | -0.17 |
| AATATTGA | -0.0962 |
| CCCTACCC | -0.0521 |
| GACGTGCA | -0.2 |

| Sequence | PBM E-score |
| --- | --- |
| AGATGACT | -0.163 |
| AGGCCTCG | -0.0844 |
| AATATTCG | -0.0844 |
| GCAAACGC | 0.174 |
| GACGTATC | 0.014 |
| CAATCTCG | -0.054 |
| AAGGACGA | -0.156 |
| ATGCTCCA | -0.0254 |
| GAATTCGC | 0.253 |
| AAAAGAGG | -0.234 |
| CGACGCCG | 0.359 |
| GCTTTGAC | 0.0283 |
| ACCGGGCC | 0.293 |
| ACCGACAC | 0.208 |
| AGGTATAC | -0.135 |
| TAGTAGGA | -0.00722 |
| ACTAACAA | -0.122 |
| TCCAACAA | -0.134 |
| GACGGGAA | 0.13 |
| GAAGTCCC | 0.132 |
| CATTTCTA | 0.0511 |
| AGAGTTGA | -0.0371 |
| AGATTTCG | 0.126 |
| TGTACCAA | -0.217 |
| ACCGGCCG | 0.392 |

| Sequence | PBM E-score |
| --- | --- |
| GAACCCAC | 0.0897 |
| ATGATACG | -0.0732 |
| CTCTGGCC | -0.161 |
| GTGACCAA | -0.0816 |
| ATTGGCTA | -0.0824 |
| GTAACGTA | -0.214 |
| CTTTATCC | 0.216 |
| CAAGCAAC | -0.101 |
| ACCGAAGA | 0.183 |
| CTCGGCAA | 0.23 |
| AATTCTAG | -0.114 |
| AATCAATT | 0.0644 |
| AGGATACC | -0.042 |
| AGGCACTA | -0.195 |
| ATACGTCC | 0.135 |
| AGCTAGCG | -0.114 |
| AGTTTAGA | 0.198 |
| AAACACGT | -0.056 |
| AGGTGGAA | 0.0674 |
| CCTATAAG | -0.184 |
| ACAAGTCG | -0.309 |
| ACAGATCC | 0.217 |
| AGTCCTGC | -0.116 |
| CTGAGCAC | -0.274 |
| CCCCCTGC | -0.14 |

| Sequence | PBM E-score |
| --- | --- |
| AACTATCT | -0.092 |
| AAGGGGTC | -0.238 |
| GCAGACGC | -0.031 |
| GAGGTACA | -0.183 |
| CTCGTCGA | -0.096 |
| GCCTCCCC | -0.0962 |
| AACTGAAT | -0.225 |
| CTATTCGC | -0.123 |
| GTAATCAA | -0.0372 |
| CGACATTC | 0.0686 |
| AGAGTACT | -0.234 |
| CAACTTGG | -0.0729 |
| AGGGTGAG | -0.217 |
| AGGGTGAC | -0.0591 |
| GACCTTAA | -0.133 |
| CTATATCC | 0.0935 |
| ATATCCTC | -0.0585 |
| ATTCATAA | 0.00513 |
| CCGCACAG | 0.213 |
| CGGCAAGC | 0.163 |
| CCCTGGCG | -0.00188 |
| CTCGTGCC | -0.093 |
| AGGCAATG | -0.176 |
| CCATGACA | -0.194 |
| CTGCTGGA | -0.261 |

| Sequence | PBM E-score |
| --- | --- |
| ACCTATTA | -0.081 |
| ATAAACTC | 0.149 |
| CAGTATCG | 0.0195 |
| ACAAGCCA | -0.206 |
| CCGATAGA | 0.283 |
| CCTTTAGA | -0.232 |
| CAACAACG | -0.154 |
| CAGTAAAA | 0.0198 |
| ATCGTGAA | 0.00733 |
| ACGGTATC | 0.0343 |
| AACGGCCC | -0.0319 |
| CCAGAAAA | -0.0107 |
| CTAATGAC | -0.308 |
| CCGTGGTA | 0.0176 |
| CATCATAA | -0.163 |
| GCAATAGC | 0.027 |
| CGCAATGA | -0.0665 |
| ATCAGTAA | -0.145 |
| CTTCTTCA | -0.168 |
| GGTCGACC | 0.279 |
| CATGCCCG | 0.254 |
| GCAAAATA | 0.00912 |
| TAAGAATA | -0.249 |
| ATGCGTCG | 0.00978 |
| AGAATAAA | 0.0309 |

| Sequence | PBM E-score |
| --- | --- |
| ACAGAGTG | -0.253 |
| AATGATAT | -0.0192 |
| GTGCCTAA | -0.242 |
| GACGGCTA | 0.0163 |
| AGGGACAT | -0.0607 |
| AGCGACCG | 0.0561 |
| AACGGCGG | 0.253 |
| CAACAGGG | -0.0988 |
| CTTGTTCA | -0.126 |
| ATAACGAA | -0.0773 |
| CCGTACGG | 0.201 |
| ACAGTGGG | -0.158 |
| AAAGTATA | -0.153 |
| ACCTCCGC | 0.425 |
| CAGACCAA | -0.0653 |
| CAAGGTTA | -0.15 |
| AATAATTG | -0.0426 |
| CAAGCACA | -0.298 |
| GTCGTGAA | -0.135 |
| TGCCAGCA | -0.0947 |
| GCGGTACC | 0.115 |
| GAATTAGC | 0.00979 |
| GAGATCAC | -0.105 |
| AAAGTAAT | 0.102 |
| AGAAGTAC | -0.273 |

| Sequence | PBM E-score |
| --- | --- |
| TGCGCAAA | 0.125 |
| AACACACA | -0.214 |
| TCACAGCA | -0.0696 |
| ATACAATA | 0.137 |
| ACCCTCGC | -0.0907 |
| CATGAGAG | -0.135 |
| AGGCGTTG | -0.136 |
| ACACCTCC | 0.14 |
| GTGGATCA | -0.19 |
| ACCAATCT | -0.0408 |
| CTGATGAC | -0.222 |
| GCGGATGA | 0.207 |
| AACCTCCC | 0.0351 |
| CGGTGATA | 0.216 |
| GGAATTTA | 0.3 |
| AAGCAACT | -0.186 |
| CTATCGCC | -0.117 |
| CAGATTCC | 0.216 |
| CGCTAATC | 0.0897 |
| CCGTTAGC | -0.00457 |
| AAAAAACG | 0.00663 |
| AAATCGTG | 0.0679 |
